# Reference: PubChem BioAssay AID488969 (Vanderbilt High Throughput Screening Facility, 2010)
# In all, about 110,000 compounds were measured (“z-score”: median about -0.1, highest 2% from about 2 on). Some of the results follow.
# Target: Metabotropic glutamate receptor 8 (Rattus norvegicus) (UniProt P70579)
# Assay: rat mGluR8 modulators via GIRK flux, primary screen, cell-based, thallium flux, HTS (AID 488969)
# Settings: HEK293 rat mGluR8, GIRK (G protein-gated inwardly rectifying potassium channel) thallium flux, FluoZin2; at 10 µM; stronger effect = higher value; submaximal glutamate (EC20) added with thallium
# Chain of UniProt P70579 (P70579 whole entry, looked up): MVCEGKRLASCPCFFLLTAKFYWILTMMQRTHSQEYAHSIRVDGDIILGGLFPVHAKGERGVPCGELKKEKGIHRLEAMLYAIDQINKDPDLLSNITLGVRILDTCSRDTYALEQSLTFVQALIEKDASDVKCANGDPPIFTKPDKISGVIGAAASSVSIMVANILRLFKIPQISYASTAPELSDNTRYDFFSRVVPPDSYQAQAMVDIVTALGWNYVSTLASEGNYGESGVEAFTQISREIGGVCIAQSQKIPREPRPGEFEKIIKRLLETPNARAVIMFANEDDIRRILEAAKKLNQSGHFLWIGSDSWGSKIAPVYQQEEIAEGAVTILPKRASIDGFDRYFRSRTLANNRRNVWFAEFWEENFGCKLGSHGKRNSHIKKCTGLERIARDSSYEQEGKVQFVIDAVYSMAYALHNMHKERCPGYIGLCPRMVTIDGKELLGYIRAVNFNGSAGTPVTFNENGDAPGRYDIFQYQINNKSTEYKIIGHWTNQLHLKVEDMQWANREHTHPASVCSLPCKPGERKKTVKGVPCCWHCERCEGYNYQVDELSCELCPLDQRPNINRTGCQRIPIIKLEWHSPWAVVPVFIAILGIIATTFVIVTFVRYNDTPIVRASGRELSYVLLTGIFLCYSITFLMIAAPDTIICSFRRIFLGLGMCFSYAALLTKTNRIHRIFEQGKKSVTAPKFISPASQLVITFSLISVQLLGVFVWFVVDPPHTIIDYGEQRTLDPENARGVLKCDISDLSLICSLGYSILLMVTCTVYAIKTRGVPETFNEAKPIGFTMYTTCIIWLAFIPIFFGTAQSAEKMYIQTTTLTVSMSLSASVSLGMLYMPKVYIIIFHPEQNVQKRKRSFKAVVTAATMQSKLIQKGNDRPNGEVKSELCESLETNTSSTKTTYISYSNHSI
row,Compound,z-score
1,COC(=O)c1sccc1N/N=C(\C)c1ccc(F)c(Cl)c1,-0.08
2,Cc1ccc2c(c1)C1(SCCS1)C(=O)N2,-0.0782
3,COC(=O)c1cc2c(C)cc3ccc(C)cn3c-2c1C(=O)OC,-0.336
4,CCCC1(C(=O)OCC)NC(c2ccc(N(C)C)cc2)C2C(=O)N(c3ccc(F)cc3)C(=O)C21 (stereo unspecified),-0.0864
5,CCC(=O)OCCNc1cc(Sc2nc3ccccc3[nH]2)c2nonc2c1[N+](=O)[O-],-0.718
6,S=C(NCc1ccc(Cl)cc1)Nc1ccccc1Cl,0.0964
7,Cc1ccc(CN2C3=NC(=O)CN3c3ccccc32)cc1,-0.626
8,Cc1oc(-c2cccs2)nc1CS(=O)CC(=O)NCCc1ccccc1 (stereo unspecified),-0.142
9,COc1ccc(S(=O)(=O)N2CCCCCC2)cc1N(C)S(=O)(=O)c1ccccc1,-0.328
10,CSc1cccc(NC(=O)C2CCN(S(=O)(=O)c3ccc(F)cc3)CC2)c1,1.67
11,COC(=O)c1sccc1NC(=O)CN(C)NS(=O)(=O)c1ccc([N+](=O)[O-])cc1,0.0408
12,Cn1c(CN2CCOCC2)nc2cc(NC(=O)c3ccc(F)cc3)ccc21,0.296
13,Cc1ccccc1OCC(O)Cn1c(NCc2ccccc2)nc2c1c(=O)[nH]c(=O)n2C (stereo unspecified),0.0947
14,CCOC(=O)/C(=C\c1ccc(OC(F)F)cc1)C1=Nn2c(nnc2-c2ccc(Cl)cc2)SC1,-0.329
15,Fc1cccc(-c2oncc2-c2nnnn2-c2ccc(Cl)cc2)c1,-0.427
16,CCn1cc(S(=O)(=O)CC(=O)Nc2cc(C)ccc2C)c2ccccc21,2.61
17,COc1ccc(-c2oc(NC(=O)CSc3nncn3C)c(C#N)c2-c2ccc(OC)cc2)cc1,-0.382
18,COc1ccc(/C=C/C(=O)Oc2ccc(/C=N/NC(=O)c3ccccc3)cc2)cc1OC,-0.147
19,CC(=O)N1N=C(c2ccc(Br)cc2)OC1(C)CC(=O)Nc1ccccc1 (stereo unspecified),-0.117
20,COC(=O)c1cn(Cc2cccc(C)c2)nn1,1.97
21,Cc1ccc2c(Cl)c(C)c(N3CCCC3)nc2n1,-0.464
22,N#Cc1ccsc1NC(=O)CSc1nnc(-c2ccccc2)o1,0.151
23,O=C(CSc1nc2cccnc2n1Cc1ccccc1)NC1CCCCC1,-0.637
24,CCCC(=O)Nc1ccc(C(=O)NNC(=O)c2cccs2)cc1,-0.0751

row,Compound,z-score
1,Cn1c(SCC(=O)NNC(=O)Cc2ccccc2)nnc1-c1ccc(Cl)cc1,-0.126
2,CCCCNS(=O)(=O)c1ccc(NS(=O)(=O)c2c(C)cc(C)cc2C)cc1,1.12
3,Cc1noc2ncnc(Sc3c(Cl)cccc3Cl)c12,-0.112
4,COc1cc(OC)c(C2=NOC(C(=O)O)C2)cc1Cl (stereo unspecified),0.212
5,CC(=O)Nc1ccc(N2CCc3c(C)c(C#N)c4nc5ccccc5n4c32)cc1,-0.214
6,COC(=O)c1c(C)oc2cc(Br)c(OCC(=O)C(C)(C)C)cc12,0.0323
7,COC(=O)C(CCSC)NC(=O)C(NC(=O)C1CCC(C)CC1)C(C)C (stereo unspecified),-0.317
8,C=CCn1c(SCC(=O)Nc2ccc3c(c2)OCO3)nc2ccccc2c1=O,0.212
9,CCc1c(C(=O)NC2CCCC2)csc1C,-0.231
10,CCCS(=O)(=O)N1CCCC(C(=O)NCCCN2CCN(c3cccc(Cl)c3)CC2)C1 (stereo unspecified),-0.412
11,COC(=O)c1cc2ccccc2c(-c2c(OC)c(C(=O)OC)cc3ccccc23)c1OC,-0.118
12,Nc1ccc(C2CCCc3nonc32)c2nonc12 (stereo unspecified),-0.157
13,COCCOc1cc(N2C(=O)CSCC2=O)c(Cl)cc1Cl,0.736
14,CC(=O)c1c(C(C)=O)c(C)n(Cc2ccc(Cl)cc2)c1C,-0.326
15,CCOC(=O)C1=C(C)NC(=O)NC1c1ccc(NC(C)=O)cc1 (stereo unspecified),-0.184
16,CCN(CC(=O)Nc1c(C(=O)OC)[nH]c2ccccc12)c1ccc2c(c1)OCO2,-0.682
17,CCN(CC)C(=O)CSc1nc(N)c(C#N)c(-c2cccs2)c1C#N,0.0946
18,Cc1ccc(/C=N/NC(=O)Cc2c[nH]c3ccccc23)c(C)c1,-0.215
19,Cc1ccc(CCN2CC(C(=O)O)CC2=O)cc1 (stereo unspecified),-0.0312
20,CN(Cc1ccccc1)c1ccc(N2C(=O)CCCC2=O)cc1[N+](=O)[O-],-0.202
21,CCOc1ccc(OCc2ccc(C(=O)Nc3ccc(Cl)cn3)o2)cc1,0.0535
22,NS(=O)(=O)c1ccc(Nc2ncccc2[N+](=O)[O-])cc1,0.143
23,CC(C)(O)C#Cc1ccc(C(=O)N2CCCC2C(=O)O)s1 (stereo unspecified),0.737
24,CN(CCOC(=O)c1ccco1)Cc1ccccc1,-0.11

row,Compound,z-score
1,O=C(Nc1ccc(F)cc1)c1ccc(S(=O)(=O)NCC2CCCO2)cc1 (stereo unspecified),0.804
2,CCOc1ccc(-n2nc3c(=O)[nH]nc(C)c3c2C)cc1,-0.125
3,Cn1cccc1/C=C1\SC(=O)N(c2ccc(O)cc2)C1=O,-0.282
4,CSc1ccc(Cl)c(C(=O)NC2CCCC2)c1,-0.0722
5,COc1ccc(-c2nc(C#N)c(N3CCC(C(N)=O)CC3)o2)cc1,-0.0894
6,O=C(C1CCN(S(=O)(=O)c2ccc(F)cc2)CC1)N1CCOCC1,0.0477
7,Cn1c(COc2ccccc2)nnc1SCc1nc2ccccc2[nH]1,-0.0593
8,CCOC(=O)/C=C1\NC2(CCCCC2)Cc2cc(OC)c(OC)cc21,0.523
9,CC1CN(S(=O)(=O)c2cn(C)c(=O)n(C)c2=O)CC(C)O1 (stereo unspecified),0.143
10,CCSc1nc(N)c2c(C)c(C)sc2n1,-0.0599
11,O=C(NCc1ccccn1)c1cccs1,0.202
12,O=C(c1cc2nc(-c3ccco3)cc(C(F)(F)F)n2n1)N1CCCCCC1,-0.907
13,COc1ccc(C(=O)N2CCOCC2)cc1Br,0.2
14,CNS(=O)(=O)c1ccc2c(c1)NC(=O)C1CCCN21 (stereo unspecified),1.46
15,O=C(O)C1C2C=CC3(O2)C1C(=O)N1c2ccccc2COC13 (stereo unspecified),0.248
16,O=Cc1c(N2CCN(c3cccc(Cl)c3)CC2)nc2ccccn2c1=O,1.04
17,C=CCN1C(=O)NC(c2ccc(OC)cc2)(C(F)(F)F)S/C1=C(\C#N)c1nnc(N2CCOCC2)n1-c1ccccc1 (stereo unspecified),-0.46
18,Nc1nc(SCc2nnc(SCC(=O)O)n2-c2ccccc2)nc2sc3c(c12)CCCC3,0.0376
19,Cc1ccc2nc(-c3ccc(NC(=O)CN4C(=O)c5ccccc5C4=O)cc3)sc2c1,-0.329
20,COC(=O)c1cc(OC)c(OC)cc1NC(=S)Nc1cc(Cl)ccc1OC,-0.0863
21,CCOc1cc(C(=O)NC)cc(OCC)c1OCC,0.62
22,O=C(NCc1cccs1)c1cc2c(s1)CCCC2,-0.28
23,COc1ccccc1CNC(=O)C1CCN(S(=O)(=O)N2CCCCC2)CC1,-0.225
